From PubChem BioAssay AID2094 (Broad Institute, 2009)
Among all 300,000 compounds or so, about 1,200 (0.4%) were called active. Inconclusive means that the source gave no clear call. Such entries were picked first, then a sample of the others. Cut-off read from the data, not from the text of the source: active = activity change below about -75% (passing the limit was not always enough); inconclusive = no clear call, values can overlap the other calls.

Test: Vibrio harveyi AI-2 quorum sensing modulators, primary screen, JMH597 strain, luminescence/OD600 ratio (AID 2094);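 note: luminescence divided by OD600 gain over 9 h not by final OD600 alone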
Settings: Vibrio harveyi JMH597 AI-2 luminescence/OD600 ratio, 9 h; at 7.5 µM; active compounds read low; 0 = neutral-control median; strain lacks LuxN and CqsS sensors

| SMILES | activity change |
| --- | --- |
| COc1ccc(C2C3=C(CC(C)(C)CC3=O)Nc3cc4c(cc32)OCO4)cc1 (centres undefined) | inactive: -4.2% |
| O=C(COC(=O)c1ccccn1)Nc1cccc(Cl)c1 | inconclusive: -75.6% |
| CC(NC(=O)/C(C#N)=C/c1ccc([N+](=O)[O-])o1)c1ccccc1 (centres undefined) | inconclusive: -84% |
| O=C1C=CC(=O)N1c1cccc(-c2ccccc2)c1 | active: -212% |
| CCOc1ccc(S(=O)(=O)N2CCCC(C(=O)NCC3CCCO3)C2)cc1 (centres undefined) | inactive: 18.3% |
| O=C(Oc1ccccc1)c1cc2ccccc2o1 | inconclusive: -72.9% |
| CCN(CC)S(=O)(=O)c1cccc(-c2nc3n(n2)Cc2ccccc2-3)c1 | inactive: 42.7% |
| CN(Cc1ccccc1)C(=O)c1ccc([N+](=O)[O-])o1 | inconclusive: -78.7% |
| Cc1ccc(CCNC(=O)c2cccc(N3CCCC3=O)c2)cc1 | inactive: 27% |
| O=C(CNCc1ccco1)Nc1ccc(Oc2ccccc2)cc1 | inconclusive: -66% |
| COc1ccc(C(=O)CCC(=O)Nc2cccc(Cl)c2)cc1 | inconclusive: -57.4% |
| COc1cc2c(cc1NC(=O)c1cccnc1)oc1ccccc12 | inactive: 22.7% |
| CCCCn1c(SCC(N)=O)nc2ccc(N3CCOCC3)cc2c1=O | inactive: 23% |
| CC1(c2ccc(Cl)cc2)NC(=O)N(CC(=O)Nc2ccc(F)cc2)C1=O (centres undefined) | active: -77.8% |
| CC(C)(C)c1n[nH]c(=S)n(/N=C/c2cccs2)c1=O | active: -76.9% |
| COc1ccc(C(=O)Nc2ccc(Cl)cc2C(=O)N2CCCC(C)C2)cc1 (centres undefined) | inactive: 13.4% |
| CC(C)Oc1ccc(NC(=O)C2CCCNC2=O)cc1 (centres undefined) | inconclusive: -73% |
| C=CCOc1ccc(/C=N\NC(N)=S)cc1 | inconclusive: -76.3% |
| CCN(c1ccccc1)S(=O)(=O)c1ccc2[nH]cc(C(=O)NCCOC)c(=O)c2c1 | inconclusive: -67.4% |
| O=C(Nc1ccc(Cc2ccncc2)cc1)c1ccco1 | active: -81.9% |
| O=C(Nc1ccc(OC(F)(F)F)cc1)Nc1cccc([N+](=O)[O-])c1 | inconclusive: -73.2% |
| O=C(Nc1cccc([N+](=O)[O-])c1)c1cc(S(=O)(=O)N2CCOCC2)cs1 | inactive: 5.82% |
| CN(C)S(=O)(=O)c1ccc(C(=O)OCC2CC2(Cl)Cl)cc1 (centres undefined) | active: -77.1% |
| O=C1COc2ccc(S(=O)(=O)Nc3ccc(OC(F)(F)F)cc3)cc2N1 | active: -94.2% |

| SMILES | activity change |
| --- | --- |
| Nc1ccc2c(c1)C(=O)C(=O)c1ccccc1-2 | inconclusive: -49.4% |
| CC1=C(C)/C(=N\OS(=O)(=O)c2ccccc2)C=CC1=O | inconclusive: 39.6% |
| O=C(Nc1cc(Br)ccc1O)C1CC(c2ccccc2Cl)=NO1 (centres undefined) | inconclusive: -64.8% |
| CC(C)CC(NC(=O)c1ccc(Cl)cc1)C(=O)OCC(=O)c1ccc2c(c1)NC(=O)CO2 (centres undefined) | inactive: 26.6% |
| Cc1nc2ccccc2n1/N=C/c1ccc([N+](=O)[O-])o1 | inconclusive: 11.6% |
| O=C(/C=C/c1ccc(Cl)cc1)c1ccc([N+](=O)[O-])o1 | inconclusive: -34.4% |
| Cc1ccc(Cc2nnc(SCC(=O)Nc3ccccc3)n(N)c2=O)cc1 | inconclusive: -60.6% |
| Cc1ccnc2nc(C(=O)Nc3nnc(CC(C)C)s3)nn12 | inconclusive: -67.6% |
| Oc1c(Cl)cc(Cl)c2cccnc12 | inconclusive: -33.1% |
| CC(=O)c1ccc(NC(=O)NCc2ccc(F)cc2)cc1 | inconclusive: -71.5% |
| c1ccc(CSc2ccc(-c3ccco3)nn2)cc1 | active: -77.2% |
| CC(C)c1cc(C(=O)N2CCCC(Nc3ccc(F)cc3)C2)n[nH]1 (centres undefined) | inactive: 22.2% |
| CC(=O)NC(c1ccc(Cl)cc1Cl)c1ccc2cccnc2c1O (centres undefined) | active: -83.6% |
| Cc1ccc(OCC(=O)Nc2ccc(S(=O)(=O)N3CCCC3)cc2)cc1 | inconclusive: -75.4% |
| COC(=O)c1cc(NC(=O)Cn2nc(C)n3cccc3c2=O)cc(C(=O)OC)c1 | inconclusive: -64.4% |
| C/C(CC(=O)Nc1ccccn1)=N\NC(=O)Cc1cccc2ccccc12 | inconclusive: -78.7% |
| CC(=O)Nc1ccc(/C=N/Nc2nc3ccccc3s2)cc1 | inactive: 29.3% |
| Cc1cc(C(=O)OCc2nnc(-c3ccccc3)o2)c(C)n1-c1ccccc1 | inconclusive: -151% |
| CCCCNS(=O)(=O)c1ccc(NC(=O)Cc2ccc(OC)cc2)cc1 | active: -96.2% |
| Cc1ccc(C(=O)NNC(=S)NC(=O)c2ccco2)cc1 | inconclusive: -77.4% |
| CCCCCCN(C(=O)CCCCCN1C(=O)NC(c2ccc(-c3ccccc3)cc2)C(C(=O)OCc2ccccc2)=C1C)C(C(=O)NCCCC)c1ccc(OCC(=O)OC)cc1 (centres undefined) | inactive: 21% |
| CCOC(=O)CC(NS(=O)(=O)c1ccc2[nH]cc(C(=O)O)c(=O)c2c1)c1ccc(OCC)c(OC)c1 (centres undefined) | inactive: 0.864% |
| COc1ccc(N2CCN(CC(O)COc3ccc(C)cc3C)CC2)cc1 (centres undefined) | inconclusive: -148% |
| CCC(=O)NC(=S)NNC(=O)COc1ccc(Br)cc1 | inconclusive: -61.2% |

| SMILES | activity change |
| --- | --- |
| CC(C)(C)C1CCc2onc(C(=O)NC3CCCC3)c2C1 (centres undefined) | inactive: 6.99% |
| CC(=O)c1cccc(NC(=O)COC(=O)c2ccccn2)c1 | inconclusive: -69% |
| COc1ccc(OC)c(/C=C/C(=O)NCCc2nc3ccccc3[nH]2)c1 | inactive: 15.3% |
| Cc1ccc(OC(=O)c2cc3ccccc3o2)cc1 | inconclusive: -73.5% |
| O=C(CC1SCCNC1=O)Nc1ccc(Cl)c(Cl)c1 (centres undefined) | active: -87.7% |
| CCOC(=O)/C=C/S(=O)(=O)c1ccc(NC(C)=O)cc1 | inconclusive: -80.3% |
| CC1CCN(S(=O)(=O)c2ccc(C(C)C)cc2)CC1 | active: -88.4% |
| Cc1ccc(-c2[nH]ncc2C(=O)c2cccc(F)c2)c(O)c1 | inconclusive: -75.7% |
| Oc1ccc(-n2nnnc2SCc2ccccc2Br)cc1 | inconclusive: -72.1% |
| O=c1c2cc(Br)ccc2nc(-c2ccc([N+](=O)[O-])cc2)n1O | active: -167% |
| O=C(CNc1cccc2ccccc12)N/N=C/c1ccc([N+](=O)[O-])o1 | inconclusive: -71% |
| COc1ccc(CCNC(=O)C(C)Sc2ccccc2)cc1OC (centres undefined) | inactive: -2.59% |
| CCCC(=O)NC(c1ccc(N(C)C)cc1)c1ccc2cccnc2c1O (centres undefined) | active: -90.2% |
| O=C(CN1CCSCC1)N1CCc2[nH]c3ccc(Br)cc3c2C1 | inconclusive: -221% |
| CSc1cccc(NC(=O)CN2C(=O)c3ccccc3S2(=O)=O)c1 | active: -85.6% |
| O=C(Nc1nc2c(s1)COc1ccccc1-2)c1cccs1 | inactive: 19.6% |
| O=C(N/N=C/c1ccco1)C1CC1c1ccccc1 (centres undefined) | active: -85.5% |
| O=C(O)c1ccc(N2C(=O)CC(N3CCN(c4cccc(Cl)c4)CC3)C2=O)cc1 (centres undefined) | inactive: 26.7% |
| CCC1(c2ccccc2)NC(=O)N(CC(=O)Nc2cccc(C#N)c2)C1=O (centres undefined) | active: -94.2% |
| O=C(Nc1ccc2[nH]c(=S)sc2c1)Nc1ccccc1F | inconclusive: -137% |
| CCn1nnc(NC(=O)c2ccc([N+](=O)[O-])o2)n1 | inconclusive: -41.2% |
| Oc1ccc(Br)cc1CNc1nccs1 | inconclusive: -80% |
| CCN(CC)S(=O)(=O)c1cccc(NC(=O)/C=C/c2cccc([N+](=O)[O-])c2)c1 | inactive: -10.2% |
| Cc1ccc(S(=O)(=O)N/N=C\C=C\c2ccccc2)cc1 | active: -98.1% |

| SMILES | activity change |
| --- | --- |
| O=C(NC1CCCC1)c1ccc([N+](=O)[O-])s1 | inconclusive: -72.5% |
| CCCCC(=O)NC(=O)NC(c1ccccc1)c1ccccc1 | inactive: 11.5% |
| O=[N+]([O-])/C=C/c1ccc2c(ccn2Cc2ccccc2)c1 | inconclusive: -31.3% |
| Cc1cc(C)cc(NC(N)=S)c1 | inconclusive: -73.9% |
| O=C(CNC(=O)c1ccncc1)N/N=C/c1ccc(Br)cc1 | inconclusive: -71.5% |
| COc1cccc(-c2nnc(NC(=O)c3ccc(Cl)s3)o2)c1 | inconclusive: 94% |
| O=[N+]([O-])c1ccc(O)c2ncccc12 | inconclusive: -55.9% |
| Cc1noc(NS(=O)(=O)c2ccc(NC(=O)CSc3nc4c(cc3C#N)CCC4)cc2)c1C | inactive: 4.1% |
| CCCCC(=O)NC(=S)NNC(=O)CCc1ccccc1 | inconclusive: -78.5% |
| NC1CCN(c2c(F)cc3c(=O)c(C(=O)O)cn(C4CC4)c3c2Cl)C1 (centres undefined) | active: -88.1% |
| O=C(CCNc1cccc(F)c1)c1cccc([N+](=O)[O-])c1 | inactive: 23.6% |
| CC(=O)c1cccc(NC(=O)c2ccc([N+](=O)[O-])o2)c1 | inconclusive: -52.6% |
| Cc1cccc(CSc2nnc(-c3ccco3)o2)c1 | active: -90.7% |
| COc1cccc(-c2cc(C(=O)N3CCCCCC3)no2)c1 | inconclusive: -67.2% |
| CCOc1cc(N2CCOCC2)c(OCC)cc1NC(=O)c1ccc(OC)cc1 | inactive: 15.9% |
| O=[N+]([O-])c1cc(F)c2cccnc2c1O | inconclusive: -77.5% |
| CCCOC(=O)Nc1ccc(C(N)=O)cc1 | inconclusive: -93.5% |
| O=C(CSc1ncnc2c1oc1ccccc12)Nc1cccc(Cl)c1 | inactive: 41.5% |
| O=C(Nc1ccccc1N1CCCCC1)c1ncoc1-c1cccc(F)c1 | inactive: -1.9% |
| O=C(Nc1ccc(S(=O)(=O)Nc2cnc3ccccc3n2)cc1)c1ccc(Cl)cc1Cl | inconclusive: -44% |
| FC(F)(F)c1cccc(NC(=S)Nc2ccc(Cl)c(Cl)c2)c1 | inconclusive: -23.9% |
| O=C(Nc1ccc(S(=O)(=O)Nc2ccccn2)cc1)c1cccc(Cl)c1 | inconclusive: -74.1% |
